# Measurements taken from ChEMBL document CHEMBL1157539, “Thousands of chemical starting points for antimalarial lead identification” (Nature, 2010).
# In all, about 13,000 compounds were measured (“IFI”: median about 4, highest 2% from about 17 on). This is one part of the list.
# Assay: GSK_TCMDC: Inhibition Frequency Index (IFI). The number of non-kinase HTS assays where a compound showed > 50 % inhibition, expressed as a percentage of the number of such assays in which the compound was tested (-0 is zero)
# Format: functional
row,Structure (SMILES),IFI [%]
1,CC(C)(C)c1cc(NC(=O)c2ccc(Cl)c([N+](=O)[O-])c2)cc(C(C)(C)C)c1,2.78
2,Nc1nc(N)c2c(ccc3c2cnn3Cc2cccnc2)n1,1.53
3,CCc1cn2c3c(cc(C(=O)N[C@@H](Cc4ccccc4)[C@H](O)CNC4CCCCC4)cc13)N(C)S(=O)(=O)C2,5.07
4,CO/C(=C\C=C\c1cc2cc(Cl)c(Cl)cc2[nH]1)C(=O)NC1CCN(CCNc2ccccc2)CC1,9.3
5,N=C(Nc1cccc(Cc2ccccc2)n1)Nc1ncccn1,17.2
6,COc1cc2c(cc1OCCN1CCC(N3CCCCC3)CC1)N(C(=O)/C=C/c1ccccc1Cl)CC2,4.35
7,CN1CCC(NC(=O)c2cccc(Nc3cc(Nc4cccc(Br)c4)ncn3)c2)CC1,2.27
8,CC=CC(=O)N1CCN(c2nccc(-c3ccc(C(C)(C)C)cc3)n2)CC1,5.26
9,S=C(NN=Cc1ccccn1)NC1CC2C=CC1C2 (centres undefined),6.29
10,CCCCCCOc1ccc(C(=O)NCCC2CCN(CCCCCNC(=O)C=Cc3ccc(Cl)c(Cl)c3)CC2)cc1,6.11
11,N=c1n(Cc2ccccc2)c2ccccc2n1CC(O)c1ccc(Cl)cc1 (centres undefined),6.31
12,CCCCCCN1CCC(NCc2ccc(Cl)cc2)CC1,4.08
13,O=C(CSc1nc2ccc([N+](=O)[O-])cc2s1)Nc1ccccc1-c1ccccc1,4.39
14,CN(C)c1nc(NN=Cc2cc(Cl)ccc2O)nc(Nc2ccc(F)cc2)n1,6.52
15,c1cc(COc2ccc(C3=NCCN3)cc2)nc(COc2ccc(C3=NCCN3)cc2)c1,0.75
16,COc1cc(CN2CCC(C(=O)Nc3ccc(-c4cccc(C)c4)cc3)CC2)ccc1O,11.6
17,COc1cc2ncnc(Nc3ccc(OCc4ccccc4Br)c(Cl)c3)c2cc1OC,1.38
18,COc1cc(Cc2cnc(N)nc2N)cc(OCCCCNS(=O)(=O)C(F)(F)F)c1OC,1.53
19,CCN(CCCN1CCCCC1)c1cc(C)nc(Nc2cc(C(F)(F)F)ccc2C)n1,3.85
20,O=C(/C=C/c1ccc(Cl)c(Cl)c1)NC1CCC(CN2CCC(c3nc4cc(O)ccc4[nH]3)CC2)CC1 (centres undefined),8.21

row,Structure (SMILES),IFI [%]
1,Cc1ccc2[nH]c(C)cc(=NN=Cc3ccc(Cl)cc3)c2c1,0.72
2,Cn1c2ccccc2c2c3ccccc3c(CNC(CO)(CO)CO)cc21,7.69
3,O=C(O[C@H]1CN[C@H](C#Cc2cc3ncnc(Nc4ccc5c(ccn5S(=O)(=O)c5cccs5)c4)c3s2)C1)N1CCOCC1,2.8
4,O=C(c1cccs1)N1N=C(c2cccs2)CC1c1cccc([N+](=O)[O-])c1 (centres undefined),4.29
5,NC1=NC(c2ccccc2)(c2ccccc2)C(=O)N1Cc1ccc(-c2ccncc2)cc1,4.46
6,COc1ccc(C2CC(c3cccs3)=NN2C(=O)c2ccco2)cc1OC (centres undefined),1.32
7,CC(C)NCc1ccc(-c2ccc(NS(=O)(=O)c3cccc4cccnc34)cc2)cc1,5.79
8,CN1CCCN(Cc2ccc(-c3cccc(NC(=O)c4ccc(Cl)cc4)c3)cc2)CC1,2.86
9,Cc1ccc(-c2ccc(NC(=O)N3CCc4cc(Br)c(N5CCN(C)CC5)cc43)cc2)cn1,8.33
10,CN(CCN1CCC(c2c[nH]c3ccccc23)CC1)C(=O)OCCCCCNC(=O)/C=C/c1ccc(Cl)c(Cl)c1,12.8
11,COc1ccc(CCNCCCCCCNCCc2ccc(-c3ccccc3)cc2)cc1OC,7.19
12,Cc1cc(CN2CC[C@H](NC(=O)c3ccc(Cl)c(Cl)c3)C2)ccc1OCCN1CCCC1,9.68
13,CC(=O)Oc1c(Cl)c(C)nc(C)c1-c1ccc(Oc2ccc(Cl)cc2)cc1,5.43
14,Cc1ccccc1C1CCN(c2ccc(C(=O)NC3CC3)cn2)CC1,8
15,CC(C)C[C@H]1C(=O)N[C@H](C2Cc3ccccc3C2)C(=O)N1[C@@H](C(=O)Nc1ccccc1OCc1ccccc1)c1ccc(F)cc1F,2.94
16,Clc1ccc(-c2[nH]c3ccccc3c2CN2CCC(N3CCCCC3)CC2)cc1,4
17,CN1CCN(c2ccc(Cl)cc2NC(=O)C2COc3ccccc3O2)CC1 (centres undefined),3.7
18,COc1ccc(Nc2nccc(-c3ccc(NC(=O)c4cc5cc(F)ccc5[nH]4)cc3)n2)cc1,3.08
19,Cc1cnc(Nc2cccc(CCN3CCOCC3)c2)nc1NC(C)C,17.2
20,Cc1ncccc1-c1cccc2c(NC(=O)Nc3ccc4nccc(N5CCN(C)CC5)c4c3)cccc12,2.88

row,Structure (SMILES),IFI [%]
1,c1ccc2[nH]c(CN(Cc3nc4ccccc4[nH]3)Cc3nc4ccccc4[nH]3)nc2c1,6.25
2,O=C(Nc1cccc(CN2CCN(C(=O)c3cccs3)CC2)c1)c1cccs1,3.01
3,CN(CCCCNC(=O)c1cc2ccccc2[nH]1)C1CC2(CCN(C(=O)OC(C)(C)C)CC2)c2ccccc21 (centres undefined),4.55
4,Cc1cccc2nc(-c3cccc(-c4cccc(CNCCc5cccn5C)c4)c3)[nH]c12,0.98
5,COc1ccc(-c2nc3cccnc3n2CC(=O)Nc2cc(Cl)c(Cl)cc2Cl)c(OC)c1,7.69
6,COc1ccc(CN2CCCC(OC(c3ccc(F)cc3)c3ccc(F)cc3)C2)c(O)c1 (centres undefined),2.94
7,Cn1cc(CN2CCCC(COC(c3ccccc3)c3ccccc3)C2)cn1 (centres undefined),5.3
8,CN(C)CCCOc1ccc(CCCCc2ccc(Cl)cc2C(=O)c2ccccc2)cc1,5.15
9,Cc1c(C(=O)NCc2ccncc2)sc2nc(-c3cccc([N+](=O)[O-])c3)cn12,4
10,Fc1ccc(C(OCC2CCCN(Cc3cccc4cccnc34)C2)c2ccc(F)cc2)cc1 (centres undefined),3.13
11,COc1cc2nc(NCCN3CCOCC3)n3nc(-c4ccccc4)nc3c2cc1OC,-0
12,COc1ccc(C(O)CNC(C)CCc2ccccc2)cc1C(F)(F)F (centres undefined),0.83
13,COc1ccc(C2C(C(=O)Nc3cc(OC)c(OC)c(OC)c3)c3cc(OC)c(OC)cc3C(=O)N2C)cc1 (centres undefined),0
14,COc1cc2nc(N3CCC(CNC(=O)/C=C/c4cccc(C)c4)CC3)nc(N)c2cc1OC,1.79
15,CC(C)NCc1cccc(-c2cccc(-c3nc4ccccc4[nH]3)c2)c1,4.9
16,Cc1sc(N2CCCCC2)nc1C(=O)Nc1ccc(F)cc1C(F)(F)F,-0
17,CCOc1cc(C(=O)NCCCN2CCCCC2C)ccc1-c1nc2cc(Cl)ccc2[nH]1 (centres undefined),0.69
18,O=C1NC(=S)N/C1=C/C=C/c1ccc([N+](=O)[O-])o1,6.67
19,CCCCOc1cc(CNCCCCCCNCc2cc(OCCCC)cc3ccccc23)c2ccccc2c1,12.5
